The whole screen tested about 48,000 compounds, of which about 450 (0.94%) were called active. About 19% were inconclusive and are not listed. Calls come from the whole dose curve; as a rule, active = well fitted inhibition curve with a large enough effect; inconclusive = small, poorly fitted or top-dose-only effect; inactive = no such curve, though single readings can be large or run the other way. This is one part of the list.
Test: Primary qHTS for Identification of Small Molecule Inhibitors of Huntingtin Promoter Activity; note: nearly all actives have a fitted effect of over 50% in size
Details: HEK293 HTT promoter firefly luciferase reporter (activity 0% = vehicle and -100% = no light), 24 h; series mostly up to 57.5 µM; activity change, negative = inhibition: at the top concentration
How it was run: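 Firefly luciferase signal from promoter-reporter HEK293 cells was scaled between vehicle (0%) and zero RLU (-100%). Compounds were tested at final concentrations of up to 57.5 uM over 24 h at 37 degrees C. PTC124 at 50 uM final served as control inhibitor.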

Activity change, negative = inhibition, inactive:
CCCN(CCC)CCCNC(=O)c1cn(CC)c2ccc(S(=O)(=O)N(C)C3CCCCC3)cc2c1=O -0.466%, CCc1ccc(OCc2cc(=O)n3c4c(sc3n2)CCCC4)cc1 -3.58%, CCNc1ncnc2c1nnn2C -7.1%, Cc1cccc(-c2nc3ccccc3n2Cc2ccccc2)c1 -4.86%, CCC(=O)Nc1ccccc1-c1nc2ccccc2n(CC(=O)c2ccc(Cl)cc2)c1=O 62.5%, Cc1ccc(S(=O)(=O)c2nnn3c2nc(NC(C)C)c2sccc23)cc1 -27%, Nc1c2c(nc3ccccc13)CCCC2O (stereo not given) -1.93%, COc1ccc2c(Sc3ccc(C)cc3)c(C(=O)NCc3ccc(F)cc3)[nH]c2c1 -6.93%, CN(C)C(=O)Oc1ccc[n+](C)c1 1.51%, COc1ccccc1NC(=O)C1=C(C)Nc2nc(CCCO)nn2C1c1cccc(O)c1 (stereo not given) -18.5%, Nc1ccn([C@@H]2CS[C@H](CO)O2)c(=O)n1 -1.34% [at 116 µM], O=C(Cn1cc(S(=O)(=O)N2CCCC2)c(S(=O)(=O)N2CCCC2)c1)Nc1ccccc1 -5.7%, O=C(Nc1cccc(NC(=O)c2ccccc2F)c1)c1ccccc1 12.1%, Cn1c(=O)c(=O)n(C)c2cc(S(=O)(=O)N3CCN(c4ccc(F)cc4)CC3)ccc21 -0.373%, COc1cc(C2CC(=O)c3cnc(N4CCN(CCO)CC4)nc3C2)cc(OC)c1OC (stereo not given) -26.5%, CCCC(=O)Nc1cc(C(=O)NCc2ccccc2)ccc1S(=O)(=O)c1ccc(Cl)cc1 21.6%, O=C(CSc1nc2c(oc3ccccc32)c(=O)n1-c1ccccc1)Nc1ccccc1F -26.5%, CC(C)c1ccc(NC(=O)CC2NCCNC2=O)cc1 (stereo not given) 13.7%, CCCc1cc(=O)[nH]c2nnc(SCCC(C)C)n12 -15.5%, COc1cc(NC(=O)CSc2ccc(-c3sc(-c4ccccc4)nc3C)nn2)cc(OC)c1 0.723%, COc1ccc(CN2CCN(S(=O)(=O)c3ccccc3)CC2)c(OC)c1 -29.2%, CCCn1cc(S(=O)(=O)c2ccc(OC)cc2)c(=O)c2cc(F)c(N3CCCCCC3)cc21 5.06%, Cc1ccc(CSc2nnc3[nH]c(=O)cc(C)n23)cc1 0.246%, NC(=O)NNc1ccccc1 -6.58%, CN1Cc2c(N)cccc2C(c2ccccc2)C1 (stereo not given) 6.22%, CCCN1C(=O)C2(c3ccccc31)c1c(oc3cc(C)c(C)cc3c1=O)C(=O)N2CCCOC (stereo not given) -14.2%, CCC(=O)N1c2ccccc2CC1C(=O)NCCc1ccc(OC)cc1OC (stereo not given) -11.8%, Cc1c(C(=O)Nc2cccc(C(F)(F)F)c2)oc2ccc(S(=O)(=O)N(C)C3CCCCC3)cc12 -6.9%, CCNC(=O)c1ccc(-n2c(-c3ccccc3)cc3c2CCCCC3)cc1 7.76%, COc1ccc(OC)c(NC(=O)[C@H](Cc2ccccc2)N2Cc3ccccc3C2=O)c1 -12.8%, COc1cccc(CNC(=O)CCc2c(C)nn(-c3ccc(N4CCOCC4)nn3)c2C)c1 12.9%, CC(=O)Nc1nonc1-c1nnc(SCc2ccc(C)cc2)n1C -0.993%, CCOC(=O)CNc1ncnc2c1nnn2C -8.39%, CCCNC(=O)c1c2c(nc3ccccc13)C(=O)N(C1CCCCC1)C2 -3.96%, CCCc1cc(=O)[nH]c2nnc(SCC(=O)Nc3cccc(C)c3)n12 -8.41%, Cc1cccn2c(=O)c(/C=C(\C#N)c3nc4ccccc4n3C)c(Oc3ccc(Cl)cc3)nc12 -5.46%, COc1cccc(-c2cc(C(=O)Nc3ccc(F)cc3)[nH]n2)c1 2.27%, CCOc1cc(-c2nnc(SCC(=O)NCc3ccc(C)cc3)nc2-c2ccc(OC)c(OCC)c2)ccc1OC -11.3%, COc1ccc(OC)c(NC(=O)c2nc(SCc3ccccc3F)ncc2Cl)c1 -4.15%, COc1cccc(NC(=O)C2CCCN2S(=O)(=O)c2ccc3c(c2)n(C)c(=O)c(=O)n3C)c1 (stereo not given) -0.686%, CCc1cccc(-n2c(=O)c3cccnc3n2CC(=O)Nc2ccccc2C(=O)OC)c1 -6.68%, CCOc1ccc(NC(=O)c2ccc3nc(Cc4ccccc4)oc3c2)cc1 -28%, Cc1ccc2oc(C(=O)Nc3sc4c(c3C(=O)NCc3ccccc3)CCCC4)cc(=O)c2c1 5.58% [at 11.5 µM], Cc1ccccc1NC(=O)N1CCC(CN2CCCC2)CC1 -11.6%, Cc1ccc(OCC(=O)OCc2cc(=O)n3c(C)csc3n2)cc1 -23.3%, COc1ccc(-n2nc3cc(C)c(NC(=O)c4ccc(C)cc4C)cc3n2)cc1Cl 7.35%, N#CC1=C2SCN(C3CCCCC3)CN2C(=O)CC1c1ccc(F)cc1 (stereo not given) -11.1%, Nc1ccc(C(=O)OCC(O)CO)cc1 (stereo not given) 0.992%, CCC(=O)N1CCc2cc(S(=O)(=O)NC(Cc3ccccc3)C(=O)NCc3ccc(F)cc3)ccc21 (stereo not given) -14.7%, O=C(CSc1nc2c([nH]c3ccccc32)c(=O)n1-c1ccccc1)Nc1ccccc1F -18.1%

Source: PubChem BioAssay AID1508623 (National Center for Advancing Translational Sciences (NCATS), 2021)
